Results reported in article PMC4336329 (PLoS ONE, 2015).
The list shows a part of the results, in another mix than the full data. Effects have a minus sign here.

What follows are compounds tested against human ether-à-go-go-related gene (hERG) potassium channel (human, UniProt Q12809) (assay: primary screen, population patch clamp on CHO cells stably expressing hERG; higher = less effect of the substance).
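Also: peak tail current of the secondary pulse compared with the same well before compound.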

SMILES | hERG current change (%, negative = inhibition) at 10uM [%]
Cl.Fc1ccc(C(c2ccc(F)cc2)N2CCN(C/C=C/c3ccccc3)CC2)cc1 | -9.23
CCN(CC)CCOC(=O)C1(C2CCCCC2)CCCCC1.Cl | -22.1
Cl.OCCN1CCN(CCCN2c3ccccc3Sc3ccc(C(F)(F)F)cc32)CC1 | -42.5
CCCCCCCCc1ccc(O)cc1 | 6.97
CN(C)C(=O)C(CCN1CCC(O)(c2ccc(Cl)cc2)CC1)(c1ccccc1)c1ccccc1.Cl | -77.9
Clc1ccc(CO/N=C(\Cn2ccnc2)c2ccc(Cl)cc2Cl)c(Cl)c1.O=[N+]([O-])O | 8.99
CN(C)CCOC(c1ccccc1)c1ccccc1.Cl | -18.8
C[C@@H]1C[C@H]2[C@@H]3CCC4=CC(=O)C=C[C@]4(C)[C@@]3(F)[C@@H](O)C[C@]2(C)[C@@]1(O)C(=O)COP(=O)([O-])[O-].[Na+] | 9.09
CC(C)(O)c1ccccc1CC[C@@H](SCC1(CC(=O)[O-])CC1)c1cccc(/C=C/c2ccc3ccc(Cl)cc3n2)c1.[Na+] | 11.3
CCCCc1oc2ccccc2c1C(=O)c1cc(I)c(OCCN(CC)CC)c(I)c1.Cl | 4.34
CNCCC(Oc1ccc(C(F)(F)F)cc1)c1ccccc1.Cl (centres unmarked) | -56.2
CN(C)CC/C=C1\c2ccccc2COc2ccccc21.Cl | -28.3
Cl.Oc1ccc2c3c1OC1C(O)CC[C@@]4(O)[C@@H](C2)N(CC2CCC2)CC[C@]314 (some centres unmarked) | -1.69
Clc1ccc(CSC(Cn2ccnc2)c2ccc(Cl)cc2Cl)cc1.O=[N+]([O-])O (centres unmarked) | -1.83
CCN(CC)CC#CCOC(=O)C(O)(c1ccccc1)C1CCCCC1.Cl (centres unmarked) | -21.8
CN1C2CCC1CC(OC(c1ccccc1)c1ccccc1)C2.CS(=O)(=O)O (centres unmarked) | -70.7
CN1CCC(=C2c3ccccc3C=Cc3ccccc32)CC1.Cl | -1.08
CCN[C@H]1C[C@H](C)S(=O)(=O)c2sc(S(N)(=O)=O)cc21.Cl | 9.82
CCCN1CCC[C@@H]2Cc3[nH]ncc3C[C@H]21.Cl | 4.96
CCN(CC)CCOc1ccc(/C(=C(/Cl)c2ccccc2)c2ccccc2)cc1.O=C(O)CC(O)(CC(=O)O)C(=O)O | 8.47
